According to paper PMC4336329 (PLoS ONE, 2015):
Out of some 310,000 compounds screened, about 14,000 (4.5%) showed an effect of 50% or more. The effect is printed as a negative number. The list shows a part of the results.

The compounds below were run against human ether-à-go-go-related gene (hERG) potassium channel (human, UniProt Q12809) (assay: primary screen, population patch clamp on CHO cells stably expressing hERG).
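Further: peak tail current of the secondary pulse compared with the same well before compound.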

human ether-à-go-go-related gene (hERG) potassium channel, sequence (Q12809 whole entry, looked up): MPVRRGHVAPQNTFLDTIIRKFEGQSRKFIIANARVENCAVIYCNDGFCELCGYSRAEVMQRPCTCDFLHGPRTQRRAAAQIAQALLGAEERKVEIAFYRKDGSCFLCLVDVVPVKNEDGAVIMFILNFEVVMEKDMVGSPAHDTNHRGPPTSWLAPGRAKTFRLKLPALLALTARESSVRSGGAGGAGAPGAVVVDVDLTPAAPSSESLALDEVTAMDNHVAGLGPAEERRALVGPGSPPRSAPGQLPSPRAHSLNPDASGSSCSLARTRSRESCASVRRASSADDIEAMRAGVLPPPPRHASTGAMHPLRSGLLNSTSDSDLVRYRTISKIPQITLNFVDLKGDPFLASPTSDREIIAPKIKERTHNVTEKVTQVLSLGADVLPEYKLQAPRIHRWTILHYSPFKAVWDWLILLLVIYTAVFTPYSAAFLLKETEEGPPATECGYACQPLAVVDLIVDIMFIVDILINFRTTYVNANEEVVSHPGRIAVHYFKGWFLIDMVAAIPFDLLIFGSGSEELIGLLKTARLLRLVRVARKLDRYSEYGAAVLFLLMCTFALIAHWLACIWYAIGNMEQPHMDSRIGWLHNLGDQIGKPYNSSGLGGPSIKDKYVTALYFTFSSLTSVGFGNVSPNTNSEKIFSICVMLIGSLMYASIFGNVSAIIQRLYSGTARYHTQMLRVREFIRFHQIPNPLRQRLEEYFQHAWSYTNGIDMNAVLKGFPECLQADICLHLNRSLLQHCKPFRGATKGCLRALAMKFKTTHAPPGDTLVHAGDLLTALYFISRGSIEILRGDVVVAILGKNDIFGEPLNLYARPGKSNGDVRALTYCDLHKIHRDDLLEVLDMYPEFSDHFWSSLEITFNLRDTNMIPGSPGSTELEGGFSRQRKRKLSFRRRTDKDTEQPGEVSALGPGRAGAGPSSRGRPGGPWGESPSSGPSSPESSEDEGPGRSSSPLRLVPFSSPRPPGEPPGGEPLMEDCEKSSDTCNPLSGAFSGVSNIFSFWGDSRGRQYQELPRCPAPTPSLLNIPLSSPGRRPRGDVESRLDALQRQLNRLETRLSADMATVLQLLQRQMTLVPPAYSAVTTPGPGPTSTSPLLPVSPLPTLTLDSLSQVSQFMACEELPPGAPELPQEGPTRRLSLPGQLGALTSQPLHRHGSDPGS

| SMILES | hERG current change (%, negative = inhibition) at 10uM |
| --- | --- |
| Cl.NCC(O)CN1CCN(Cc2ccccc2)CC1 (stereo not shown) | 11% |
| Cc1ccc(N2CCN(C(=O)NC3CCCCC3)CC2)c(C)c1 | 12% |
| O=C(CN1CCN(S(=O)(=O)c2ccccc2)CC1)NC(=O)NCc1ccccc1 | 12.7% |
| CC1(C)CC(Cc2nc(=S)[nH][nH]2)C(=O)O1 (stereo not shown) | 20% |
| COCCn1c(=O)[nH]c(=O)c2c1nc(-c1cc(Br)c3c(c1)OCO3)n2Cc1ccccc1 | 0.333% |
| O=C(Nc1ccc(-c2nc3ccc(NC(=O)c4cccs4)cc3[nH]2)cc1)c1cccs1 | 18.1% |
| O=C(CCc1nnc(CCc2ccccc2)o1)N1CCCC1c1nccs1 (stereo not shown) | 5.12% |
| Cc1ccc(Cl)cc1N1CCN(S(=O)(=O)c2c(C)nc3scc(C)n3c2=O)CC1 | 17.8% |
| Cc1ccc2ncnc(NCCC(=O)O)c2c1.Cl | 2.72% |
| c1ccc(Cn2nnnc2CN2CCN(Cc3ccc4c(c3)OCO4)CC2)cc1 | -61.1% |
| CC(C)(C)N1C(=O)[C@H]2[C@@H](c3ccc(Br)cc3)N3C(=O)N(c4cccc(Cl)c4)C(=O)[C@@]3(Cc3ccccc3)[C@H]2C1=O | 23.4% |
| CCOC(=O)C1=C(C)NC(=S)NC1c1ccc(-c2cccc(Cl)c2C)o1 (stereo not shown) | 14.4% |
| COc1ccc(CNC(=O)CCS(=O)(=O)c2ccc3c(c2)CC(C)N3C(=O)C2CC2)cc1 (stereo not shown) | 11.4% |
| COc1ccc(/C=C/C(=O)NNC(=O)c2cc(C)oc2C)cc1 | 5.04% |
| O=C(NC1CCS(=O)(=O)C1)c1cccc(S(=O)(=O)N2CCCCC2)c1 (stereo not shown) | 4.21% |
| Cc1nc(CSc2ccc(Cl)cc2)cc(N2CCOCC2)n1 | -16.8% |
| Cc1ccc(C(=O)Nc2ccc(Nc3ccccc3)cc2)c(Cl)c1 | 20.7% |
| COc1ccc(Cl)cc1NC(=S)N(Cc1cccnc1)Cc1ccco1 | -73.8% |
| NC(=O)c1cc2cc(Br)ccc2o/c1=N/NC(=O)c1cccc(F)c1 | 5.52% |
| O=C(CCN=C1NS(=O)(=O)c2ccccc21)OCc1ccccc1 | 4.19% |
| Cc1cc(Cl)ccc1Oc1ccccc1C(=O)CC#N | -27.4% |
| COc1cccc(NC(=O)CCN2C(=O)c3ccccc3Sc3ncccc32)c1 | 12.7% |

| SMILES | hERG current change (%, negative = inhibition) at 10uM |
| --- | --- |
| O=C(Nc1nnc(-c2ccncc2)o1)c1ccccc1F | 31.6% |
| Cc1cc(-c2nnc(SCC(=O)c3ccc4c(c3)OCCO4)o2)no1 | -0.243% |
| Cc1cccc(N2CC(C(=O)Nc3ccc4c(c3)OCO4)CC2=O)c1C (stereo not shown) | -22.2% |
| C=CCN1C(=O)/C(=C2/Sc3ccccc3N2CC)SC1=S | 15.5% |
| COc1cc(CNCc2ccc(OC)c3ccccc23)cc(OC)c1OC.O=C(O)C(=O)O | -20% |
| Cc1nn(-c2ccccc2)c(C)c1NC(=O)c1ccc(S(=O)(=O)N2CCCC2)cc1 | -10.5% |
| CC(C)c1ccc(NC(=S)Nc2cccc3ccccc23)cc1 | 12.3% |
| COc1ccccc1N1C(=O)C2CCC(c3ccccc3)CC2C1=O (stereo not shown) | -3.05% |
| O=C(CCSc1ccc(Cl)cc1)N1CCN(S(=O)(=O)c2ccccc2)CC1 | -25.8% |
| COc1cc(/C=C/C(=O)O)cc(S(=O)(=O)Nc2ccccc2Oc2ccccc2)c1OC | -6.27% |
| Cn1c(N)c(C(=O)c2ccc(Oc3ccccc3)cc2)c(=O)n(C)c1=O | -7.5% |
| Cc1cccnc1NC(=O)c1ccc(S(=O)(=O)N2CCC(C)CC2)cc1 | -12.3% |
| [Br-].c1ccc(-c2c[n+]3c(n2-c2ccccc2)SCC3)cc1 | -28.4% |
| Cc1nn(CCO)c2nc(-c3cccs3)cc(C(F)(F)F)c12 | 2.32% |
| CN(Cc1cnn(C)c1)C(=O)C1CCC(=O)N(Cc2cccc(C(F)(F)F)c2)C1 (stereo not shown) | 6.88% |
| O=C(CN(C(=O)c1nsc(Cl)c1Cl)c1ccc(F)cc1)NC1CCCC1 | -3.02% |
| O=C(COc1ccccc1/C=C1\SC(=O)NC1=O)Nc1ccccc1 | 14.4% |
| Oc1[nH]c2ccccc2c1N=Nc1c(F)c(F)c(C(F)(F)F)c(F)c1F | 4.55% |
| Cc1ccc(-c2nnc(N3CCCCC3)c3ccccc23)cc1S(=O)(=O)N1CCN(C)CC1 | -58.7% |
| CC(C)(C)c1nn2cnnc2n(/N=C/c2cccc3ccccc23)c1=O | -9.63% |
| CC(C)CN(C(=O)COC(=O)c1ccc(Cl)nc1)c1c(N)n(Cc2ccccc2)c(=O)[nH]c1=O | 21% |
| COc1ccc(C(=O)N2CCC(C(=O)Nc3ccccc3OC)CC2)cc1 | -34.6% |

| SMILES | hERG current change (%, negative = inhibition) at 10uM |
| --- | --- |
| COc1ccc(NC(=O)NS(=O)(=O)c2ccc(C)cc2)c(OC)c1 | 10.6% |
| O=C(NCCC1=CCCCC1)C1CCN(c2nnc(-n3cccc3)s2)CC1 | -24.7% |
| CC1CCN(CC(O)COC2CC(C)CCC2C(C)C)CC1.Cl (stereo not shown) | -70.4% |
| CCOc1ccc(NS(=O)(=O)c2ccc(C)c(C(N)=O)c2)cc1 | 21.5% |
| Cc1nnc2ccc(-c3cccc(C(F)(F)F)c3)nn12 | -9.04% |
| CCOc1ccc([N+](=O)[O-])cc1CNC1CCCCCCC1.Cl | -14.9% |
| Brc1cc2c(cc1/C=N/Nc1nc3ccccc3s1)OCO2 | 2.59% |
| Nc1nnc(SCC(=O)OCC(=O)NC23CC4CC(CC(C4)C2)C3)s1 | 15.2% |
| CC(=O)Nc1ccc2c(c1)OCCOCCOc1cc(NC(C)=O)ccc1OCCO2 | -4.52% |
| Cc1cccc(C(=O)OCC(=O)Nc2nnc(-c3ccccc3)o2)c1O | -6.16% |
| COC(=O)c1ccccc1NC(=O)CSc1nnc(C(C)NC(=O)c2ccc(Cl)cc2Cl)n1C (stereo not shown) | -45.3% |
| CCc1nnc(SCC(=O)NC2CC2)n1CC | 23.7% |
| Cn1nnnc1SCC(=O)Nc1ccc2c(c1)OCO2 | 11.8% |
| CN(C)CCN1CC(C(=O)O)CC1=O (stereo not shown) | 13.3% |
| Cc1nc(CS(=O)(=O)c2ccccc2)cc(N2CCN(c3ccccc3F)CC2)n1 | 3.43% |
| O=C(Cc1ccc(Br)cc1)N/N=C/c1cccnc1 | -30.9% |
| Cc1nonc1NC(=O)c1oc2ccc(F)cc2c1C | -6.41% |
| COc1ccc(N2C(S)=C(C#N)C(=O)NC23CCCCC3)cc1 | 32.7% |
| COc1cc(CNCCCO)ccc1OCC(=O)NC(C)(C)C | 19.8% |
| COc1ccccc1CNc1ccccc1F | 12.6% |
| O=C(Nc1cccc(O)c1)c1ccc(Br)c(S(=O)(=O)N2CCCCC2)c1 | 5.52% |
| COc1ccc(C(=O)Nc2c(-c3ccccc3)nc3ccccn23)c(OC)c1 | 11.3% |

| SMILES | hERG current change (%, negative = inhibition) at 10uM |
| --- | --- |
| CCc1c(C)sc(NC(=O)C2CC(c3c(F)cccc3Cl)=NO2)c1C#N (stereo not shown) | 15.4% |
| COc1ccc(CN2CCNC(=O)C2CC(=O)N2CCCN(C(C)=O)CC2)c(OC)c1 (stereo not shown) | 15.1% |
| CCN(CC)Cc1ccccn1.Cl | 9.79% |
| COC(=O)Cc1nc(NC(=O)c2cccs2)sc1C | 22.7% |
| CCOC(=O)c1cnn(CCOC(=O)c2ccc(F)cc2)c1NC(=O)c1ccc(F)cc1 | -19.4% |
| Cc1occc1-c1nnc(SCC(=O)N2CCOCC2)n1CC(C)C | 1.02% |
| O=C(Nc1cccc(Cl)c1Cl)Nn1cnnc1 | 20.4% |
| O=c1cnn(-c2ccc(Cl)cc2Cl)c(-c2ccccc2)c1 | 9.04% |
| COC(=O)C1=C(c2ccc(OC)c(OC)c2)C[C@@H]2CC[C@H]1N2C(=O)N1CCC(O)CC1 | 21.4% |
| CN1C(=O)c2cccc(NC(=O)C3CCCCC3)c2C1=O | -28.9% |
| CCCn1c(CN(Cc2ccccc2)Cc2ccccc2)nc2c1c(=O)n(C)c(=O)n2C | -9.51% |
| CCOc1cc(/C=C2\SC(N3CCCC(C)C3)=NC2=O)ccc1O (stereo not shown) | 1.31% |
| Cc1cc(=O)n(C)c(=O)n1CC(=O)N1CCCCCC1 | 15.9% |
| COc1cc(S(=O)(=O)N2CCOCC2)ccc1NC(=O)COC(=O)COc1ccccc1 | -6.01% |
| Cc1ccccc1Cn1ccc(NC(=O)c2cnn3cccnc23)n1 | -10.3% |
| COc1ccc(/C=N/NC(=O)CN(C)S(=O)(=O)c2ccc(NC(C)=O)cc2)cc1 | -6.61% |
| COc1ccc(CCNC(=O)CC(=O)N/N=C/c2ccc(Br)cc2)cc1OC | 3.87% |
| CN(C)S(=O)(=O)c1cccc(C(=O)Nc2cc(Cl)ccc2O)c1 | -23.1% |
| CCOc1ccc(-c2nnn(CC(=O)N3CCCC(C)C3)n2)cc1 (stereo not shown) | -20.2% |
| O=C(Cn1ncc(Cl)c(Cl)c1=O)NC1CCS(=O)(=O)C1 (stereo not shown) | -3.46% |
| Br.CCCCn1c(=N)n(CCOc2ccc(C)cc2)c2ccccc21 | -73.1% |
| Cl.O=C1CCC(c2ccccc2)(C2CCN(Cc3ccccc3)CC2)C(=O)N1 (stereo not shown) | -31.9% |
